Assay results as given in patent US4868195A, “Novel enolamides, pharmaceutical compositions and methods of use thereof for activity as modulators of the arachidonic acid cascade” (Warner-Lambert Company, priority 1988, dated 1989).
At least one read-out could not be matched to a standard name with certainty.

Target: T1, human leukocyte 5-lipoxygenase (Homo sapiens, UniProt P09917)
T1 construct: endogenous in cells; host or cells: intact leukocytes isolated from human blood
T1 sequence (P09917 1-674): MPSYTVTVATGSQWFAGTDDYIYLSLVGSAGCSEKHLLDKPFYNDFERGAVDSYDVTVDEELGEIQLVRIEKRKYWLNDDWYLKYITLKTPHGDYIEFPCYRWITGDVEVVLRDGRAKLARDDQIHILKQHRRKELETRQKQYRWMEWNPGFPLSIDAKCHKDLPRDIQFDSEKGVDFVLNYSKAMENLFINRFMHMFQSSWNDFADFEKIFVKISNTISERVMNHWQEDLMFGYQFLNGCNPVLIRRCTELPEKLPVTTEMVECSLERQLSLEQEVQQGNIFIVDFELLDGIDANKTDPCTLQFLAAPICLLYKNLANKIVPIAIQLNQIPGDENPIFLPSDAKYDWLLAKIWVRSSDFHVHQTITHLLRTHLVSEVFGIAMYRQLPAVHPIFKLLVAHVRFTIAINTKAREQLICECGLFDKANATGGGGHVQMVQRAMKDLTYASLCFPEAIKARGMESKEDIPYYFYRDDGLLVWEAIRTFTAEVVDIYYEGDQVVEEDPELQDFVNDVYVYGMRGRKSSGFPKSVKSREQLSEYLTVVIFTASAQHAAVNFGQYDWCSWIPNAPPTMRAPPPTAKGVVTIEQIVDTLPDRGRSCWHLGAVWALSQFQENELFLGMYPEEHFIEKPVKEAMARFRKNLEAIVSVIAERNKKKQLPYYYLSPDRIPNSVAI
Assay: 5-lipoxygenase inhibition in human leukocytes, 5-HETE formation (5LOA; methods 5LOA1 and 5LOA2)
Type: cell-based
Text: To Evaluate the Effect of Each Compounds as a 5-Lipoxygenase Inhibitor in Comparison to Standard Reference Agents in Human Leukocytes (5LOA1)
The purpose of this assay is to evaluate the activity of each compound as an inhibitor of human leukocyte 5-lipoxygenase.
Arachidonic acid and calcium ionophore A23187 are obtained from Sigma (St. Louis, MO). Silica gel plates, GF are obtained from Analtech (Newark, DE). Arachidonic acid, (1-^14 C) and 5-HETE (^3 H), 5 (S)-hydroxy-6-trans,8,11,14-cis eicosatetraenoic acid, are obtained from New England Nuclear (Boston, MA). Six percent Dextran-70 in 0.9% NaCl is obtained from Cutter Labs (Berkeley, CA).
Preparation of Leukocytes
Fresh blood from normal adult men who had not received any drugs for at least the previous five days is obtained by the Community Research Clinic (WL/PD) using venipuncture and collected into heparinized vacuotainer tubes. To every 100 ml of pooled blood is added 25 ml of dextran solution (6% dextran -70 in 0.9% sodium chloride containing 3% dextrose) and this is mixed gently in a plastic cylinder. The mixture is left to stand at room temperature for at least 90 minutes. The upper layer which is rich in leukocytes and platelets is then carefully decanted into 50 ml plastic tubes and centrifuged at about 100×g for eight minutes in an IEC centrifuge and rotor number 269 (about 600 rpm). The supernatant fluid is discarded and the pellet is resuspended in 10 ml of 0.87% ammonium chloride for exactly two minutes. This procedure is to lyse completely contaminating red blood cells. Leukocytes are then separated by centrifugation for ten minutes. The pellet is washed three times by suspension in 20 ml PBS (sodium chloride, 7.1 g; Na2 HPO4, 1.15 g; KH2 PO4, 0.2 g, and KCl, 0.2 g/L) and centrifuged as before. The final pellet is suspended in PBS containing 0.87 mM CaCl2. Viability of the cells is then checked using trypan blue exclusion method and is found to be over 90%.
5-Lipoxygenase Enzyme Assay
Leukocyte cells in suspension (0.98 ml) are incubated with or without test compounds for five minutes at 37° C. in a shaking water bath. At this time a 17 μl mixture is prepared per 1 ml of cell suspension: 100 mM arachidonic acid, 1 μl, 0.05 μCi ^14 C-arachidonic acid in 5 μl; 1 mM calcium ionophore A23187, 10 μl (1). This mixture is added and the incubation continued for five minutes. The reaction is stopped by adding four volumes of absolute ethanol and the mixture is kept in ice for 30 minutes. The floculated precipitate is separated by centrifugation at about 37,000×g for 20 minutes (Beckman Instruments rotor number 40). The alcohol extract is taken to dryness under a stream of nitrogen and the residue is dissolved in 100-200 μl absolute ethanol. At the time any turbidity is removed by centrifugation. An aliquot (25-50 μl) is applied onto 20×20 cm silica gel TLC plate and developed using the following solvent system: diethyl ether, petroleum ether (2040° C.), acetic acid (50:50:1 v/v). Zones of 1 cm apart are scraped from the TLC plate and transferred to mini-vials. Methanol (0.5 ml) is added to dissolve the radioactivity adsorbed to the silica gel and scintillation fluid (H. P., Beckman), 5 ml is then added and vials are counted in a liquid scintillation counter. A sample of ^3 H-5-HETE is applied and used for the identification of the formed 5-HETE.
Total radioactivity in the test as well as the control samples are normalized and the amount of 5-HETE present is calculated accordingly.
IC50 values are defined as the concentrations of test agents which caused a 50% inhibition of the formation of 5-HETE as compared to control and are determined by inspection of the concentration-response curves.
5-Lipoxygenase Assay Using Isolated Human Leukocytes (5LOA2)
The formation of 5-HETE in human leukocytes is considered a measure of 5-lipoxygenase activity. The protocol is described in the following. […]

Row | SMILES | % Inhibition (5LOA) (Concentration 2.00 E -5 M) | % Inhibition (5LOA) (Concentration 5.00 E -6 M)
1 | O=C(Nc1ccc(CCc2ccc(Cl)c(Cl)c2)cc1)C(=O)c1sc2ccccc2c1O [Example 136, Benzo[b]thiophene-2-acetamide, N-[4-[2-(3,4-dichlorophenyl)ethyl]phenyl]-3-hydroxy-α-oxo] | +2.2% | +1.4%
2 | COc1c(C(=O)Nc2ccc(CCc3ccc(Cl)c(Cl)c3)cc2)sc2ccccc12 [Example 147, Benzo[b]thiophene-2-carboxamide, N-[4-[2-(3,4-dichlorophenyl)ethyl]phenyl]-3-methoxy] | 13.8% | 5.5%
